Test results published in patent US20220073637A1 (CITY OF HOPE, published 2022).
Numbering of substitutions follows the chain as printed. One block for each binder: values may come before it.

How the values were obtained:
[1] = target: T1, human CD6 (human, UniProt P30203 18-402, limits assumed); assay: ELISA on human CD6; enzymatic site non-cleaved
T1 sequence (looked up): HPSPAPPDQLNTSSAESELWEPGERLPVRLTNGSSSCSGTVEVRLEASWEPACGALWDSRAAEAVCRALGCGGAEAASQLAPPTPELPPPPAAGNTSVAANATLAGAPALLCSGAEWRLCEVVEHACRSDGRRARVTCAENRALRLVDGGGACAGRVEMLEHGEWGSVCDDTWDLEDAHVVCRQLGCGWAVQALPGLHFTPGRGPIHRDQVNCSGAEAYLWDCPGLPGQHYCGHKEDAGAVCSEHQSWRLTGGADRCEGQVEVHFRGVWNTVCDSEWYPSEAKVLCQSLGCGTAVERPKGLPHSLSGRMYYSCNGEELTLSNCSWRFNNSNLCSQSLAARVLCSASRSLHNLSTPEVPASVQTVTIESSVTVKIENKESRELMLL
Method: FIG. 35. Human CD6 binding of exemplary anti-CD6/EGF antibody-growth factor complexes provided herein. ELISA of bionic anti-CD6/EGF antibody conjugate of SEQ ID NO:38 and D104N mutant bionic anti-CD6/EGF antibody conjugate binding to CD6 is shown. The dilution of the antibodies was carried out with respect to the concentration obtained by OD₂₈₀. The enzymatic site is non-cleaved for both mAbs.

[2] = target: T2, CD6 Ecto (ectodomain) (UniProt P30203 18-402); assay: SPR (Biacore), CD6 Ecto immobilized on CM5 chip, conjugate 50-0.39 nM, 25 °C
T2 construct: extracellular domain; also called ecto CD6 domain; CD6 ecto domain
T2 sequence (looked up): T1 sequence (looked up)
Method: FIG. 33. SPR of an exemplary anti-CD6 antibody-growth factor complex provided herein. SPR with MMP2 cleaved bionic anti-CD6/EGF antibody conjugate with CD6 Ecto is shown. CD6 Ecto was immobilized to a Biacore CM5 chip using NHS chemistry. Concentrations of purified cleaved bionic anti-CD6/EGF antibody conjugate ranging from 50 nM to 0.39 nM were flown over the chip at 25° C.

[3] = target: T3, EGFR (UniProt P00533 fragment, limits assumed); assay: SPR (Biacore), EGFR immobilized on CM5 chip by NHS chemistry, conjugate 0.0625-2 µM, 25 °C
T3 construct: also called epidermal growth factor receptor
Method: FIG. 26. Dissociation constant (KD) of an exemplary anti-CD6 antibody-growth factor complex provided herein. Bionic anti-CD6/EGF antibody conjugate of SEQ ID NO:32 binding to EGFR is shown. EGFR was immobilized to a Biacore CM5 chip using NHS chemistry. Concentrations of previously cleaved and purified bionic anti-CD6/EGF antibody conjugate ranging from 0.0625 μM to 2 μM were flown over the chip at 25° C.

EC50 (read off the curve) [1]: ~0.09 mg/L
B1: bionic anti-CD6/EGF antibody conjugate of SEQ ID NO:38 (Fc fusion)
chain: DIQMTQSPILLSASVGDRVTITCKASRDIRSYLTWYQQRTNGSPRTLIYYATSLADGVPSRFSGSGSGQDYSLTISSLESDDIADYYCLQHGESPFTFGSGTKLEIKRTVAAPSVFIFPPSDEQLKSGTASVVCLLNNFYPREAKVQWKVDNALQSGNSQESVTEQDSKDSTYSLSSTLTLSKADYEKHKVYACEVTHQGLSSPVTKSFNRGECASASAAASSASSAASSNSDSECPLSHDGYCLHDGVCMYIEALDKYACNCVVGYIGERCQYRDLKWWELRGSGSGIEPDSGGSEVQLVESGGGLVKPGGSLKLSCAASGFKFSRYAMSWVRQAPGKRLEWVATISSGGSYIYYPDSVKGRFTISRDNVKNTLYLQMSSLRSEDTAIYYCARRDYDLDYFDSWGQGTLVTVSS[human IgG1 constant region not listed]
notes: also called anti-CD6^EGF[GZMB]; Base bionic CD6-EGF antibody conjugate with granzyme cleavage site

Kd [2]: 0.000762 µM | koff [2]: 0.0017 s⁻¹ | kon [2]: 2.3e+06 M⁻¹ s⁻¹
B2: MMP2 cleaved bionic anti-CD6/EGF antibody conjugate (wild type) (Fc fusion)
chain: B1 chain with S287V, G288L, I289P, E290A, P291S, D292L, S293Y, G294S
modifications: backbone cleaved by MMP2 within the MMP2/9 site (SEQ ID NO:66) of the second linker; the bond that is cut is not stated
notes: also called wild type cleaved bionic anti-CD6/EGF antibody conjugate

Kd [3]: 0.23 µM
B3: Bionic anti-CD6/EGF antibody conjugate of SEQ ID NO:32, previously cleaved and purified (Fc fusion)
chain: B1 chain with S287V, G288L, I289P, E290A, P291S, D292L, S293Y, G294S
modifications: backbone cleaved by protease (MMP9 per FIG. 25) within the MMP2/9 site (SEQ ID NO:66) of the second linker; the bond that is cut is not stated
notes: After cleavage the molecule consists of LC-linker-EGF-(linker remnant) and (linker remnant)-HC-Fc; also called cleaved bionic anti-CD6/EGF antibody conjugate; Bionic Cleaved
